Test results published in patent US6750224B1, “Antibacterial optically pure benzoquinolizine carboxylic acids, processes, compositions and methods of treatment” (priority 1999, dated 2004).

System: S. aureus strain 042
Conditions: after six passages in drug containing media
Description: […] . In studies, which mimic the clinical scenario, S-(−)-Nadifloxacin was evaluated in comparison with trovafloxacin and gatifloxacin by sequential transfer/passages through respective drug containing media. […] . In clinical settings, the ability of pathogenic bacteria to select a drug resistant variant/subcldne while the patient is on antibacterial drug therapy often determines the outcome of the therapy.

SMILES | rise in MIC value
COc1c(N2CCNC(C)C2)c(F)cc2c(=O)c(C(=O)O)cn(C3CC3)c12 (stereo not drawn) [Gatifloxacin] | ~700%
C[C@H]1CCc2c(N3CCC(O)CC3)c(F)cc3c(=O)c(C(=O)O)cn1c23 [S-(−)-Nadifloxacin, S-(−)-9-fluoro-8-(4-hydroxy-piperidin-1-yl)-5-methyl-6,7-dihydro-1-oxo-1H,5H benzo[i,j]quinolizine-2-carboxylic acid] | 4%
N[C@@H]1[C@H]2CN(c3nc4c(cc3F)c(=O)c(C(=O)O)cn4-c3ccc(F)cc3F)C[C@@H]12 [Trovafloxacin, trovafloxacin] | approximately 300%
